# Measurements as given in paper PMC4336329 (PLoS ONE, 2015).
# The whole screen tested about 310,000 compounds, of which about 14,000 (4.5%) showed an effect of 50% or more. Effects have a minus sign here. The list shows a part of the results.
# Molecular target: human ether-à-go-go-related gene (hERG) potassium channel (human, UniProt Q12809)
# Test: primary screen, population patch clamp on CHO cells stably expressing hERG
# 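Also: peak tail current of the secondary pulse compared with the same well before compound.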
# Chain of human ether-à-go-go-related gene (hERG) potassium channel (Q12809 whole entry, looked up): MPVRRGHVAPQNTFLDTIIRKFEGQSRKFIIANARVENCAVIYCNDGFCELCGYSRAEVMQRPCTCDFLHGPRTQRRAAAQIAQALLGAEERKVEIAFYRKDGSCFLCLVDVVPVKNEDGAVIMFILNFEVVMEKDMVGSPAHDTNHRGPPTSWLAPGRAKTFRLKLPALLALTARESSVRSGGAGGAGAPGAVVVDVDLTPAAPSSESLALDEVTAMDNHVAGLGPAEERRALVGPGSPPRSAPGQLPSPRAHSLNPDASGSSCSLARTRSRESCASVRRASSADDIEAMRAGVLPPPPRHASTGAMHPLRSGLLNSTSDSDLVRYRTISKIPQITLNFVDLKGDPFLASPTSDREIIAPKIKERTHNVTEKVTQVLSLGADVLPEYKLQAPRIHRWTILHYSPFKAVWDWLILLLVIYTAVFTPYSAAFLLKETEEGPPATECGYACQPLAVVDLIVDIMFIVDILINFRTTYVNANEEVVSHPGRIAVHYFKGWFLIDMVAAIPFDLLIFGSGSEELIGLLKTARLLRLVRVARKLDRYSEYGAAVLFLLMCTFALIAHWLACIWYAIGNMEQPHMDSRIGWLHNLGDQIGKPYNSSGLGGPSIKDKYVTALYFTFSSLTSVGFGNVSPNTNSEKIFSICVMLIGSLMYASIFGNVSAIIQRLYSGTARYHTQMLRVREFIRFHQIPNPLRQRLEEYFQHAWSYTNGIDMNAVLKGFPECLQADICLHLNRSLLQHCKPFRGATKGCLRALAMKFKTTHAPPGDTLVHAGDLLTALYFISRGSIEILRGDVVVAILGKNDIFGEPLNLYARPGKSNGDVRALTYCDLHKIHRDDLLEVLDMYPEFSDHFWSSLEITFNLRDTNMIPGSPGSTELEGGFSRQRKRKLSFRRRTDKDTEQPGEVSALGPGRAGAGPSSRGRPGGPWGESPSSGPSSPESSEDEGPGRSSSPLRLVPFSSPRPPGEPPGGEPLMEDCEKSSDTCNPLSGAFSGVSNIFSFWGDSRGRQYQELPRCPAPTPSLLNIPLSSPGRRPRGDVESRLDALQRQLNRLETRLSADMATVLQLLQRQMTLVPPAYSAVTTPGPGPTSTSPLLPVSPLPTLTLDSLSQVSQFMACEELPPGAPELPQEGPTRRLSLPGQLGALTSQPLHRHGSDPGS
row,SMILES,"hERG current change (%, negative = inhibition) at 10uM"
1,CC(C)C(C(=O)NCc1ccco1)N(C(=O)CNS(=O)(=O)c1ccc(Cl)cc1)C1CCCC1 (stereo not shown),-8.85%
2,COC(=O)Cc1cc(=O)n(-c2nc3ccccc3[nH]2)[nH]1,-23.3%
3,COc1ccc(NC(=O)C2CCCN(c3nc(C)cc(C)n3)C2)cc1 (stereo not shown),12.4%
4,CN(C)S(=O)(=O)c1ccc(NCC2COc3ccccc3O2)c([N+](=O)[O-])c1 (stereo not shown),-7.72%
5,Cc1cc(-c2ccc(C(C)C)c(S(=O)(=O)N3CCC(C)CC3)c2)on1,2.65%
6,O=C(C1CC1)N1CCN(c2ccc([N+](=O)[O-])cc2)CC1,-61.8%
7,CC(CC1CC(C)(C)OC1=O)C(=O)Nc1ccc([N+](=O)[O-])cc1 (stereo not shown),-51.4%
8,Cc1c(C)c2c(OCC(=O)N3CCC(O)CC3)cc3c(c2oc1=O)CCC(C)(C)O3,-10.3%
9,CCCCC1(CC(=O)OCC)C(=O)N(c2ccccc2)N(c2ccccc2)C1=O,-9.4%
10,COc1ccc(C(O)CNC(C)C)c(F)c1OC (stereo not shown),0.97%
11,COc1ccc(-n2c(C)cc(/C=C(\C#N)C(=O)NCc3ccco3)c2C)cc1,-5.18%
12,CC(Oc1ccccc1)C(=O)NCc1cccnc1 (stereo not shown),10.5%
13,CN1C(=O)NC(=O)/C(=C/c2ccc([N+](=O)[O-])o2)C1=O,12.9%
14,CC(C)C(=O)Nc1ccc(N2CCCC2)cc1,21.5%
15,CCCCc1cc(=O)oc2cc(C)cc(OC(C)C(=O)NCc3cccnc3)c12 (stereo not shown),-19.7%
16,Cc1ccc(C(N)=O)cc1S(=O)(=O)Nc1cccc(C)c1C,-5.98%
17,Cc1nc(C(=O)N2CCC(n3nccc3NC(=O)Nc3ccccc3Cl)CC2)cs1,10.9%
18,CN(C)CCC(=O)N1c2ccccc2Sc2ccc(Cl)cc21.Cl,-6.12%
19,Cc1ccc(N(Cc2ccccc2)C(=O)c2ccc(Cl)c(S(=O)(=O)N3CCOCC3)c2)cc1,-70.3%
20,CCC(CC)NC(=O)CO/N=C/c1ccc(Cl)cc1Cl,10.2%
21,COc1ccc(OCC(=O)N2CCN(C(=O)c3cccc(F)c3)CC2)cc1,-7.41%
22,COc1ccc(-c2cc(C(=O)N3CCN(c4ncccn4)CC3)c3ccccc3n2)cc1,-33.4%

row,SMILES,"hERG current change (%, negative = inhibition) at 10uM"
1,CCN(CC)CCNCc1cc(Cl)ccc1OCc1ccccc1F.Cl,-72.8%
2,CC1CCC(C(C)C)C(OC(=O)COC(=O)c2ccc(=O)[nH]c2)C1 (stereo not shown),-8.28%
3,Cc1ccc(C(=O)C(C)OC(=O)Cn2[nH]c(=O)c3ccccc3c2=O)cc1C (stereo not shown),12%
4,COc1ccc(N=C2NC(=O)/C(=C/c3ccco3)S2)cc1,19.1%
5,CCCCOc1ccc(C(=O)NCC(=O)N2CC(C)CC(C)C2)cc1 (stereo not shown),-26.7%
6,CC1CCN(Cc2c(C(=O)N/N=C/c3ccccc3O)nnn2-c2nonc2N)CC1,14.6%
7,CCCn1c2ccccc2c2nnc(SCC(=O)OCC)nc21,-16.9%
8,COc1cc(/C=N/N=C2/NC(=O)C(CC(=O)O)S2)ccc1OCc1ccc(Cl)cc1 (stereo not shown),20.2%
9,C=Cn1ccnc1CC(O)c1ccc(OC)cc1 (stereo not shown),9.75%
10,CCNc1nc(=S)nc(NC(C)C)[nH]1,29.6%
11,Nc1nnc(-c2cn(-c3ccccc3)nc2-c2ccc(Cl)cc2)o1,12.7%
12,COc1cc(OC)c(C(=O)O/N=C(\N)c2cccc(C)c2)cc1OC,0.724%
13,CCC(C)n1c(NC(=O)c2ccccc2)c(C#N)c2nc3ccccc3nc21 (stereo not shown),0.57%
14,COn1c(-c2ccc(Cl)cc2)nc2ccc(Cl)cc21,-4.56%
15,O=C(OCC(=O)N1CCOCC1)c1ccc(Cl)cc1[N+](=O)[O-],2.42%
16,Cc1ccc(S(=O)(=O)CCC(=O)OCC(=O)NCCc2ccc(S(N)(=O)=O)cc2)cc1,11.7%
17,Cc1ccc2cc3cc(C(=O)N4CCN(C(=O)c5ccco5)CC4)sc3nc2c1,-28.6%
18,CCOc1ccc(-n2c(O)c(/C=N/Nc3nnc(C)c(=O)[nH]3)c3ccccc3c2=O)cc1,-0.575%
19,N#CC12CCCCC1CC1CCCCC1(C#N)N2CCO (stereo not shown),6.59%
20,Cc1ccc(S(=O)(=O)CC(=O)NC(C)(C)C)cc1,27.2%
21,COc1ccccc1OCc1nnc(SCC(=O)Nc2ccc(N3CCOCC3)cc2)n1C,2.8%
22,COc1ccc(-c2ocnc2C(=O)NCc2nn(-c3ccccc3)nc2C)cc1,5.05%

row,SMILES,"hERG current change (%, negative = inhibition) at 10uM"
1,O=C(COc1cccc(-n2cnnn2)c1)NCCC1=CCCCC1,-20.5%
2,CCOC(=O)C1=C(C)NC(=O)NC1/C=C\c1ccccc1 (stereo not shown),17.5%
3,N/C(=N\OC(=O)c1ccc(Cl)cc1[N+](=O)[O-])c1cccnc1,-11.3%
4,COc1cc(C(=O)N(Cc2ccccc2)c2cccc(C)c2)ccc1OC(F)F,21.6%
5,CCn1c(=O)cc(OCC(=O)N(C)c2ccccc2F)c2ccccc21,-17.8%
6,CCOc1ccc2cc(S(=O)(=O)N3CCN(C)CC3)ccc2c1,-15.3%
7,CCO[C@H]1OC(C(=O)NC2CC2)=C[C@@H](c2ccc3c(c2)OCO3)[C@@H]1CCCO,7.42%
8,CCN(CC)S(=O)(=O)c1ccc(OC)c(NC(=O)COc2ccc3c(C)cc(=O)oc3c2)c1,10.2%
9,O=C(N/N=C/c1ccc(Br)s1)c1c[nH]c2ccccc12,7.32%
10,CN(C)N1C(=O)CC(NNC(=O)c2ccncc2)C1=O (stereo not shown),-9.24%
11,Cc1ccc(SCC(=O)NNC(=O)c2ccccc2)c(C)c1,4.32%
12,COCCNCCCOc1ccc(C)cc1Br,-22.7%
13,O=C(Cn1ncc2c3ccccc3n(Cc3ccc(F)cc3)c2c1=O)N1CCN(c2ncccn2)CC1,-16.2%
14,COc1ccc(NC(=O)COC(=O)c2ccc(Cl)c(S(N)(=O)=O)c2)c([N+](=O)[O-])c1,-2.65%
15,CC(CO)N1CCS(=O)(=O)CC1 (stereo not shown),9.55%
16,O=C(c1ccc(Cn2cnnn2)cc1)N1CCCC(Nc2ccc(F)c(F)c2)C1 (stereo not shown),0.716%
17,O=C(CC1CCOCC1)Nc1ccc(Cl)c(Cl)c1,0.589%
18,O=c1[nH]c(SCc2ccccc2[N+](=O)[O-])nc2nc[nH]c12,11.2%
19,CCOC(=O)C1CCN(C(=O)COC(=O)c2ccc3[nH]c4c(c3c2)CCCC4)CC1,8.13%
20,CCc1ccc(C(=O)COC(=O)CCc2nc3ccccc3c(=O)[nH]2)cc1,-0.315%
21,CC(=O)/C(C#N)=C1\NC(=O)C(Cc2ccc(C)c(C)c2)S1 (stereo not shown),3.01%
22,CCCc1ccc(-c2ccc(C(=O)O)cc2)nc1,6.13%

row,SMILES,"hERG current change (%, negative = inhibition) at 10uM"
1,COc1ccc(C(=O)NC(=S)Nc2ccc(CN3CCOCC3)cc2)cc1,-43.8%
2,COc1cccc(C2NC(=O)c3sc(=S)n(-c4ccccc4)c3N2)c1 (stereo not shown),-12.8%
3,CCCCc1nc2ccccc2c(=O)n1-c1ccc(Cl)cc1[N+](=O)[O-],31.4%
4,CCc1cccc(CC)c1NC(=O)CSc1nnc(C2CC2)n1C,8.69%
5,O=S(=O)(c1cccs1)N1CCN(c2ccccc2F)CC1,-6.83%
6,C=CCc1cc(OC)ccc1OCCN(C)Cc1ccccc1.O=C(O)C(=O)O,-16.6%
7,CCC(C)NC(=O)CN(c1ccc(OC)cc1)S(=O)(=O)c1ccc(NC(C)=O)cc1 (stereo not shown),-9.39%
8,O=C(CNC(=O)N1CC(=O)Nc2ccccc21)Nc1nccs1,12%
9,CS(=O)(=O)N(CC(=O)Nc1ccc(Br)cc1F)C1CCCCC1,0.49%
10,Cc1ccccc1CNCCCSc1ncccn1.Cl,21.1%
11,CCN1/C(=C/c2ccc3cc(C)ccc3[n+]2CC)Sc2ccccc21.[I-],-90.6%
12,COC(=O)C1C(=O)C2=C(CC1C)Nc1ccccc1NC2c1cccs1 (stereo not shown),-0.565%
13,Cc1nc(SCCC(=O)O)c2ccccc2n1,10%
14,CCOC(=O)C1CCCN(c2c(Nc3ccc(OCC)cc3)c(=O)c2=O)C1 (stereo not shown),-3.97%
15,O=C(CSc1cccc[n+]1[O-])Nc1ccc([N+](=O)[O-])cc1Cl,8.81%
16,O=C(NCC(=O)N1CCN(c2ncc(C(F)(F)F)cc2Cl)CC1)c1ccc(Br)o1,-50.6%
17,Cn1c(OCc2cccnc2)nc2c1c(=O)n(Cc1ccccc1)c(=O)n2C,-56.1%
18,Cc1ccc(NS(=O)(=O)c2ccc(-n3cccn3)cc2)nc1,17.4%
19,COc1cc(/C=C(/C#N)C(=O)NCCc2c[nH]c3ccccc23)ccc1OCc1ccccc1F,7.65%
20,Cc1nn(-c2ccccc2)c(C)c1NC(=O)COC(=O)c1ccc(S(=O)(=O)C(F)F)cc1,-8.81%
21,c1ccc(OCCOCCN2CCOCC2)cc1,10.4%
22,C=CCNC(=O)C1CCCN(S(=O)(=O)c2ccc(-n3cnnn3)cc2)C1 (stereo not shown),-27.5%
